# Reference: the supplement of paper PMC8728848
# This is one part of the list.
# What was measured:
# Test in all cases: glycan array binding signal (z-score within array); higher = stronger binding
# Conditions in all cases: glycan notation: IUPAC condensed, linker removed
# GalNAc3S(b1-4)GlcNAc3S = biological target: GalNAc3S(b1-4)GlcNAc3S
# Outline: (§1)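 Glycan array data came from 3228 arrays in the Consortium for Functional Glycomics database, and only arrays with an available protein sequence were kept. Glycan names were put into IUPAC-condensed notation, and columns mapping to the same glycan were averaged. The binding signal is a within-array Z-score, averaged across arrays of one protein sequence run at different concentrations or buffers and across linkers. A negative Z-score can be read as non-binding.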
# [1] = biological target: GalNAc3S(b1-4)[Fuc(a1-3)]GlcNAc
# Outline: as §1
# GalNAc4S6S(b1-4)GlcNAc = biological target: GalNAc4S6S(b1-4)GlcNAc
# Outline: as §1
# GalNAc6S(b1-4)GlcNAc = biological target: GalNAc6S(b1-4)GlcNAc
# Outline: as §1
# Glc(a1-4)Glc = biological target: Glc(a1-4)Glc
# Outline: as §1
# [2] = biological target: Glc(a1-4)Glc(a1-4)Glc(a1-4)Glc
# Outline: as §1
# Glc(a1-6)Glc(a1-6)Glc = biological target: Glc(a1-6)Glc(a1-6)Glc
# Outline: as §1
# [3] = biological target: Glc(a1-6)Glc(a1-6)Glc(a1-6)Glc
# Outline: as §1
# Glc(b1-4)Glc = biological target: Glc(b1-4)Glc
# Outline: as §1
# Glc(b1-6)Glc = biological target: Glc(b1-6)Glc
# Outline: as §1
# GlcA(b1-3)Gal = biological target: GlcA(b1-3)Gal
# Outline: as §1
# GlcA(b1-3)GlcNAc = biological target: GlcA(b1-3)GlcNAc
# Outline: as §1
# GlcA(b1-6)Gal = biological target: GlcA(b1-6)Gal
# Outline: as §1
# [4] = biological target: GlcA3S(b1-3)Gal(b1-4)GlcNAc(b1-2)Man
# Outline: as §1
# [5] = biological target: GlcA3S(b1-3)Gal(b1-4)GlcNAc(b1-3)Gal(b1-4)Glc
# Outline: as §1
# [6] = biological target: GlcNAc(a1-3)Gal(b1-4)GlcNAc
# Outline: as §1
# [7] = biological target: GlcNAc(a1-4)Gal(b1-3)GlcNAc
# Outline: as §1
# [8] = biological target: GlcNAc(a1-4)Gal(b1-4)GalNAc
# Outline: as §1
# [9] = biological target: GlcNAc(a1-4)Gal(b1-4)GlcNAc
# Outline: as §1
# [10] = biological target: GlcNAc(a1-4)Gal(b1-4)GlcNAc(b1-3)Gal(b1-4)Glc
# Outline: as §1
# [11] = biological target: GlcNAc(a1-4)Gal(b1-4)GlcNAc(b1-3)Gal(b1-4)GlcNAc
# Outline: as §1
# [12] = biological target: GlcNAc(a1-4)Gal(b1-4)GlcNAc(b1-3)Gal(b1-4)GlcNAc(b1-3)Gal(b1-4)GlcNAc
# Outline: as §1
# [13] = biological target: GlcNAc(a1-4)Gal(b1-4)GlcNAc(b1-3)Gal(b1-4)[Fuc(a1-3)]GlcNAc(b1-3)Gal(b1-4)[Fuc(a1-3)]GlcNAc
# Outline: as §1
# [14] = biological target: GlcNAc(a1-6)Gal(b1-4)GlcNAc
# Outline: as §1
# [15] = biological target: GlcNAc(b1-2)Gal(b1-3)GalNAc
# Outline: as §1
# [16] = biological target: GlcNAc(b1-2)Man(a1-3)[GlcNAc(b1-2)Man(a1-6)]Man(b1-4)GlcNAc(b1-4)GlcNAc
# Outline: as §1
# [17] = biological target: GlcNAc(b1-2)Man(a1-3)[GlcNAc(b1-2)Man(a1-6)]Man(b1-4)GlcNAc(b1-4)[Fuc(a1-6)]GlcNAc
# Outline: as §1
# [18] = biological target: GlcNAc(b1-2)Man(a1-3)[GlcNAc(b1-4)][GlcNAc(b1-2)Man(a1-6)]Man(b1-4)GlcNAc(b1-4)GlcNAc
# Outline: as §1
# [19] = biological target: GlcNAc(b1-2)Man(a1-3)[GlcNAc(b1-4)][GlcNAc(b1-2)Man(a1-6)]Man(b1-4)GlcNAc(b1-4)[Fuc(a1-6)]GlcNAc
# Outline: as §1
# [20] = biological target: GlcNAc(b1-2)[GlcNAc(b1-4)]Man(a1-3)[GlcNAc(b1-2)Man(a1-6)]Man(b1-4)GlcNAc(b1-4)GlcNAc
# Outline: as §1
# [21] = biological target: GlcNAc(b1-2)[GlcNAc(b1-4)]Man(a1-3)[GlcNAc(b1-4)][GlcNAc(b1-2)Man(a1-6)]Man(b1-4)GlcNAc(b1-4)GlcNAc
# Outline: as §1
# [22] = biological target: GlcNAc(b1-2)[GlcNAc(b1-4)]Man(a1-3)[GlcNAc(b1-4)][GlcNAc(b1-2)[GlcNAc(b1-6)]Man(a1-6)]Man(b1-4)GlcNAc(b1-4)GlcNAc
# Outline: as §1
# [23] = biological target: GlcNAc(b1-2)[GlcNAc(b1-4)]Man(a1-3)[GlcNAc(b1-4)][GlcNAc(b1-2)[GlcNAc(b1-6)]Man(a1-6)]Man(b1-4)GlcNAc(b1-4)[Fuc(a1-6)]GlcNAc
# Outline: as §1
# [24] = biological target: GlcNAc(b1-2)[GlcNAc(b1-6)]Man(a1-6)[GlcNAc(b1-2)Man(a1-3)]Man(b1-4)GlcNAc(b1-4)GlcNAc
# Outline: as §1
# [25] = biological target: GlcNAc(b1-2)[GlcNAc(b1-6)]Man(a1-6)[GlcNAc(b1-2)Man(a1-3)]Man(b1-4)GlcNAc(b1-4)[Fuc(a1-6)]GlcNAc
# Outline: as §1
# [26] = biological target: GlcNAc(b1-2)[GlcNAc(b1-6)]Man(a1-6)[GlcNAc(b1-4)][GlcNAc(b1-2)Man(a1-3)]Man(b1-4)GlcNAc(b1-4)GlcNAc
# Outline: as §1
# GlcNAc(b1-3)Fuc = biological target: GlcNAc(b1-3)Fuc
# Outline: as §1
# GlcNAc(b1-3)Gal = biological target: GlcNAc(b1-3)Gal
# Outline: as §1
binder,measurement,setting,value
"Epa6 (Candida glabrata), Q6DTM7_CANGB (protein) MGSSHHHHHHSSGLVPRGSHMKDDYSSSLSNNNLGWTDPTEFPLGCSPNVTTPKNGLSMELYSYDYLKSGSNPCWDAAYLDPNYPRTGYKSHRLLAKVENVAGNINFYYHAPMGCTSLFDTLPQAYNYRTPLTMTNFTMLLYGYFKPKVTGYHTFTISADDLLFVNFGAGNAFDCCKRESSADDFGNYQAYAVWGSQTAKDDLTVHLDAGLYYPIRIFFNNRDNDGALSLTLKTESDPNPVIDFSDYFYSFDDTKDGCPGLVSYDTS",glycan array binding signal (z-score),GalNAc3S(b1-4)GlcNAc3S,-0.334
same,glycan array binding signal (z-score),[1],-0.285
same,glycan array binding signal (z-score),GalNAc4S6S(b1-4)GlcNAc,-0.321
same,glycan array binding signal (z-score),GalNAc6S(b1-4)GlcNAc,-0.31
same,glycan array binding signal (z-score),Glc(a1-4)Glc,-0.321
same,glycan array binding signal (z-score),[2],-0.267
same,glycan array binding signal (z-score),Glc(a1-6)Glc(a1-6)Glc,-0.312
same,glycan array binding signal (z-score),[3],-0.341
same,glycan array binding signal (z-score),Glc(b1-4)Glc,-0.32
same,glycan array binding signal (z-score),Glc(b1-6)Glc,-0.303
same,glycan array binding signal (z-score),GlcA(b1-3)Gal,-0.328
same,glycan array binding signal (z-score),GlcA(b1-3)GlcNAc,-0.345
same,glycan array binding signal (z-score),GlcA(b1-6)Gal,0.615
same,glycan array binding signal (z-score),[4],-0.309
same,glycan array binding signal (z-score),[5],-0.333
same,glycan array binding signal (z-score),[6],-0.308
same,glycan array binding signal (z-score),[7],-0.306
same,glycan array binding signal (z-score),[8],-0.297
same,glycan array binding signal (z-score),[9],-0.307
same,glycan array binding signal (z-score),[10],-0.346
same,glycan array binding signal (z-score),[11],-0.303
same,glycan array binding signal (z-score),[12],-0.297
same,glycan array binding signal (z-score),[13],-0.268
same,glycan array binding signal (z-score),[14],-0.07
same,glycan array binding signal (z-score),[15],-0.289
same,glycan array binding signal (z-score),[16],-0.321
same,glycan array binding signal (z-score),[17],-0.233
same,glycan array binding signal (z-score),[18],-0.339
same,glycan array binding signal (z-score),[19],-0.314
same,glycan array binding signal (z-score),[20],-0.326
same,glycan array binding signal (z-score),[21],-0.301
same,glycan array binding signal (z-score),[22],-0.337
same,glycan array binding signal (z-score),[23],-0.329
same,glycan array binding signal (z-score),[24],-0.343
same,glycan array binding signal (z-score),[25],-0.309
same,glycan array binding signal (z-score),[26],-0.344
same,glycan array binding signal (z-score),GlcNAc(b1-3)Fuc,-0.332
same,glycan array binding signal (z-score),GlcNAc(b1-3)Gal,-0.334
